The whole screen tested about 52,000 compounds, of which about 1,700 (3.3%) were called active. No stated cut-off is given here; in the data, active means survival mostly below about 52% (no sharp cut-off); inactive means mostly above about 56%. This is one part of the list.

57 compounds from PubChem BioAssay AID463173 (ICCB-Longwood Screening Facility, Harvard Medical School, 2010) can be followed below.

The test system of the test is Wild type. Nature of the test: S. aureus survival, RN4220 and DeltatarO strains – OD600, teichoic acid synthesis inhibitors, primary screen (AID 463173). Conditions: S. aureus RN4220 wild type/DeltatarO growth, OD600, 18 h, stronger effect = lower value, screened at 18.75 µg/mL (by protocol).
For `COc1cccc(-c2nc(SC(C(C)=O)C(=O)N(C)C)c3c(=O)n(C)c(=O)n(C)c3n2)c1` (configuration not stated), the survival was inactive: 66%.
Take `CCOC(=O)C1=C(CNCc2ccccc2)NC(=O)NC1c1ccc(C)cc1` (configuration not stated): the survival was inactive: 90%.
As to `Cc1ccc(N2C(=O)[C@@H]3CSC(c4ccc(C(F)(F)F)cc4)N3C2=O)cc1` (some centres not stated), the survival is inactive: 137%.
For the compound `Cc1ccc(S(=O)(=O)N2CCCc3cc(NC(=O)c4ccc(C(F)(F)F)cc4)ccc32)cc1`, the survival is inactive: 110%.
Take `COc1ccc(-n2c(=O)c3c(C)c(C)sc3n(Cc3ccc(F)cc3)c2=O)c(OC)c1`: the survival is inactive: 81%.
Next, `O=C(Nc1ccc(F)cc1)c1cccc(N2CCCS2(=O)=O)c1`: inactive: 84%.
As for `O=C(COC(=O)c1ccco1)Nc1nc2ccccc2s1`, the survival is inactive: 108%.
In the case of `Cc1cc(=O)n(C(C)C(=O)NCc2ccccc2Cl)c2c1c(C)nn2-c1ccccc1` (configuration not stated), the survival was inactive: 125%.
Consider `CCOc1ccccc1NC(=O)C1CCN(S(=O)(=O)Cc2ccccc2)CC1`, for which the survival was inactive: 80%.
Take `O=C(NC1CCCCC1)N(Cc1ccccc1)Cc1cc2cc3c(cc2[nH]c1=O)OCCO3`: the survival was inactive: 128%.
In the case of `COc1cc(OC)c(C2C=C(c3ccc(C)cc3)Nc3c(C(=O)Nc4ccccc4)cnn32)cc1OC` (configuration not stated), the survival was inactive: 52%.
With `Cc1ccc(C(C)C)c(OCC(=O)Nc2c(C(=O)c3ccc(F)cc3)oc3ccccc23)c1`, the survival was inactive: 74%.
In the case of `Cc1cc(O)c(C(c2ccccc2Cl)N2CCCCC2)c(=O)n1Cc1ccco1` (configuration not stated), the survival was inactive: 81%.
`CCn1cc(C(=O)NCc2ccccc2)c(=O)c2cc(S(=O)(=O)N3CCOCC3)ccc21`: the survival was inactive: 81%.
Next, `Cc1c2cnn(CC(=O)N3CCCCC3)c(=O)c2c(C)n1Cc1ccc(Cl)cc1`: inactive: 84%.
The same measure for `Cc1ccc(NC(=O)c2ccc3c(=O)n4nc(Nc5ccccc5C)sc4nc3c2)cc1C`: inactive: 92%; for `CCc1ccc(C2N3CC4(C)CN2CC(c2ccccc2)(C3)C4=O)cc1` (configuration not stated): inactive: 118%; for `O=C(NCCc1ccc(Cl)cc1)c1ccc2c(c1)N(Cc1ccc(F)cc1Cl)C(=O)CS2`: inactive: 74%.
Regarding `CCOC(=O)C(C)NC(=O)c1cc2c(=O)[nH]c3ccc(C)cc3c2s1` (configuration not stated), the survival is inactive: 68%.
The same measure for `Cc1ccc(/C=C/c2onc(C)c2S(=O)(=O)N2CCC(C(=O)NCc3ccc(Cl)cc3)CC2)cc1`: inactive: 92%.
Next, `CC(NC(=O)c1ccc(N2Cc3ccccc3Oc3ncccc32)s1)c1ccccc1` (configuration not stated): inactive: 70%.
As for `Cc1c(Cl)cccc1NC(=O)C(=O)NCCc1csc(-c2cccc(F)c2)n1`, the survival is inactive: 71%.
Next, `COc1ccc(-c2[nH]c(-c3ccccc3)nc2SCC(=O)Nc2ccc3c(c2)OCO3)cc1`: inactive: 69%.
For the compound `CCn1c(CN2CCCCC2)nc2cc(NC(=O)COc3ccc([N+](=O)[O-])cc3)ccc21`, the survival is inactive: 79%.
As to `CCCSc1nnc(CN2CCOCC2)n1C`, the survival is inactive: 113%.
For `COc1ccc(NC(=O)c2ccc(-c3cccc(Cl)c3C)o2)cc1`, the survival was inactive: 44%.
Next, `COc1ccc(-c2nc(CSc3nc4ncccc4[nH]3)c(C)o2)cc1OC`: inactive: 93%.
For the compound `CC(NC(=O)Cc1ccc(NC(=O)N2CCCCc3ccccc32)cc1)c1ccccc1` (configuration not stated), the survival was inactive: 72%.
Consider `Cc1ccc(CNC(=O)CN2C(=O)COc3ccc(S(=O)(=O)N4CCC(C)CC4)cc32)cc1`, for which the survival is inactive: 116%.
Next, `CC(C)(C)n1nnnc1C(c1ccc2ncccc2c1)N1CCc2ccccc21` (configuration not stated): inactive: 111%; `CCN1C(=O)c2ccccc2S(=O)(=O)c2ccc(C(=O)NCc3ccc(F)cc3)cc21`: inactive: 81%.
The same measure for `O=C(O)CC1SC(=Nc2ccc(O)cc2)NC1=O` (configuration not stated): inactive: 98%; for `CSc1cccc(NC(=O)c2ccc3c(c2)CCCN3S(C)(=O)=O)c1`: inactive: 74%.
Regarding `Cc1ccc(NC(=O)Cc2coc3c(C)c(C)ccc23)c(C)c1`, the survival is inactive: 99%.
Regarding `Cc1ccc(-n2cc(C(=O)OCc3ccc(Cl)cc3)c3ccccc3c2=O)cc1`, the survival is inactive: 74%.
The same measure for `O=C(O)CC(NC(=O)Cc1ccccc1)c1ccccc1` (configuration not stated): inactive: 98%.
Consider `CCCCCCn1c(/C=C/c2ccccc2)nc2ccccc21`, for which the survival was active: 0%.
`COc1ccc(NC(=O)c2ccc3[nH]c(C)cc(=O)c3c2)cc1`: the survival is inactive: 88%.
The same measure for `CCN(CC)c1ccc(-c2nc(-c3ccccn3)no2)cc1[N+](=O)[O-]`: inactive: 79%; for `COC(=O)C1CCN(c2csc3ccc(C)cc3c2=O)CC1`: inactive: 71%.
Consider `CCN(CCCNC(=O)c1ccc(Sc2ccc(Cl)cc2)c(NC(C)=O)c1)c1cccc(C)c1`, for which the survival was inactive: 72%.
On to `CCc1nn(CCCC(=O)NCc2ccc(OC)c(OC)c2)c(=O)c2cc3occc3n12`, for which the survival was inactive: 76%.
Turning to `Cc1ccc(C)c(NC(=O)CN(Cc2ccccc2)S(=O)(=O)c2ccc3nc(C)sc3c2)c1`, the survival was inactive: 66%.
On to `c1ccc(N2CCN(c3ncnc4c3nc3n4CCCCC3)CC2)cc1`, for which the survival is inactive: 72%.
The same measure for `Cc1ccc(-n2ncc3c(NCc4ccccc4)ncnc32)cc1C`: inactive: 67%; for `Cc1cc(Br)ccc1NC(=O)c1sc2ncn(Cc3ccccc3Cl)c(=O)c2c1C`: inactive: 59%.
For `COc1cc(C2Oc3nc(SC)nnc3-c3ccccc3N2C(C)=O)cc(Cl)c1OC` (configuration not stated), the survival was inactive: 70%.
Consider `CCS(=O)(=O)Nc1ccc(Cc2ccncc2)cc1`, for which the survival was inactive: 106%.
The same measure for `NCc1oc(-c2ccccc2)cc1C(=O)O`: inactive: 97%.
The same measure for `O=C(CSc1oc(-c2ccco2)nc1S(=O)(=O)c1ccc(Br)cc1)c1ccc(Cl)cc1`: inactive: 61%; for `CC1CCN(S(=O)(=O)c2cccc(C(=O)N(C)C3(C)CCS(=O)(=O)C3)c2)CC1` (configuration not stated): inactive: 84%.
Regarding `Cc1cc(C)cc(NC(=O)C2CCN(c3nc(C)cc(C)n3)CC2)c1`, the survival was inactive: 106%.
Turning to `Cc1cccc(NC(=O)CCS(=O)(=O)c2cc(Br)cc3c2N(C(=O)C2CC2)CC3)c1C`, the survival was inactive: 80%.
Next, `CC1=C(C(=O)Nc2cccnc2)C(c2ccc(F)cc2)n2nc(SCc3ccccc3)nc2N1` (configuration not stated): inactive: 86%; `CCN1C(=O)C2C(c3ccccc3O)NC(Cc3c[nH]c4ccccc34)(C(=O)O)C2C1=O` (configuration not stated): inactive: 95%.
On to `CC(NC(=O)C1CCN(C(=O)N2CCOc3ccccc32)CC1)c1ccccc1` (configuration not stated), for which the survival was inactive: 87%.
Next, `COc1cc(OC)c(NC(=O)CSc2nc3ccncc3[nH]2)cc1Cl`: inactive: 123%.
